The text below walks through data of article PMC9911399, “Two distinct binding modes provide the RNA-binding protein RbFox with extraordinary sequence specificity”.

First the molecules themselves.
T1: RBFOX1 RRM RbFoxmut (Fox-RRM*) (Homo sapiens, UniProt Q9NWB1 109-208, R118D;E147R;N151S;E152T)
T1 sequence: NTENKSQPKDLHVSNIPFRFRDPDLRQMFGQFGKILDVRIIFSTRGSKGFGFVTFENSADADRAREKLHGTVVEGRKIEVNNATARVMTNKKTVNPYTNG

B1: GAGAUUU (DNA:RNA)
RNA: GGGAGACCGGAAUUCAGAUUGUCCGAGAUUUUUAAAUCCCGUCGUAGCCACCA
DNA 1: CAATCTGAATTCCGGTCTCCC
DNA 2: TGGTGGCTACGACGGGATT
B2: UUGCCAU (DNA:RNA)
RNA: B1 RNA with G25U, A26U, A28C, U29C, U30A
DNA 1: CAATCTGAATTCCGGTCTCCC
DNA 2: TGGTGGCTACGACGGGATT
B3: GGUAAAC (DNA:RNA)
RNA: B1 RNA with A26G, G27U, U29A, U30A, U31C
DNA 1: CAATCTGAATTCCGGTCTCCC
DNA 2: TGGTGGCTACGACGGGATT
B4: UCUUCCA (DNA:RNA)
RNA: GGGAGACCGGAAUUCAGAUUGUCCUCUUCCAUUAAAUCCCGUCGUAGCCACCA
DNA 1: CAATCTGAATTCCGGTCTCCC
DNA 2: TGGTGGCTACGACGGGATT
B5: CAUAUUU (DNA:RNA)
RNA: B1 RNA with G25C, G27U
DNA 1: CAATCTGAATTCCGGTCTCCC
DNA 2: TGGTGGCTACGACGGGATT
B6: UGAGGUA (DNA:RNA)
RNA: B4 RNA with C26G, U27A, U28G, C29G, C30U
DNA 1: CAATCTGAATTCCGGTCTCCC
DNA 2: TGGTGGCTACGACGGGATT
B7: GCCUUGA (DNA:RNA)
RNA: B4 RNA with U25G, U27C, C29U, C30G
DNA 1: CAATCTGAATTCCGGTCTCCC
DNA 2: TGGTGGCTACGACGGGATT
B8: CAAUAGA (DNA:RNA)
RNA: B4 RNA with U25C, C26A, U27A, C29A, C30G
DNA 1: CAATCTGAATTCCGGTCTCCC
DNA 2: TGGTGGCTACGACGGGATT
B9: CGAUAUC (DNA:RNA)
RNA: B1 RNA with G25C, A26G, G27A, A28U, U29A, U31C
DNA 1: CAATCTGAATTCCGGTCTCCC
DNA 2: TGGTGGCTACGACGGGATT
B10: UUGGACA (DNA:RNA)
RNA: B4 RNA with C26U, U27G, U28G, C29A
DNA 1: CAATCTGAATTCCGGTCTCCC
DNA 2: TGGTGGCTACGACGGGATT
B11: CGCUUUG (DNA:RNA)
RNA: B1 RNA with G25C, A26G, G27C, A28U, U31G
DNA 1: CAATCTGAATTCCGGTCTCCC
DNA 2: TGGTGGCTACGACGGGATT
B12: UAUGUCC (DNA:RNA)
RNA: B4 RNA with C26A, U28G, C29U, A31C
DNA 1: CAATCTGAATTCCGGTCTCCC
DNA 2: TGGTGGCTACGACGGGATT
B13: UAAUCGA (DNA:RNA)
RNA: B4 RNA with C26A, U27A, C30G
DNA 1: CAATCTGAATTCCGGTCTCCC
DNA 2: TGGTGGCTACGACGGGATT
B14: CGUGAGC (DNA:RNA)
RNA: B4 RNA with U25C, C26G, U28G, C29A, C30G, A31C
DNA 1: CAATCTGAATTCCGGTCTCCC
DNA 2: TGGTGGCTACGACGGGATT
B15: CAUACCC (DNA:RNA)
RNA: B4 RNA with U25C, C26A, U28A, A31C
DNA 1: CAATCTGAATTCCGGTCTCCC
DNA 2: TGGTGGCTACGACGGGATT
B16: AGGAGAU (DNA:RNA)
RNA: B1 RNA with G25A, A26G, U29G, U30A
DNA 1: CAATCTGAATTCCGGTCTCCC
DNA 2: TGGTGGCTACGACGGGATT
B17: GGGAAGC (DNA:RNA)
RNA: B1 RNA with A26G, U29A, U30G, U31C
DNA 1: CAATCTGAATTCCGGTCTCCC
DNA 2: TGGTGGCTACGACGGGATT
B18: CCGAAGA (DNA:RNA)
RNA: B1 RNA with G25C, A26C, U29A, U30G, U31A
DNA 1: CAATCTGAATTCCGGTCTCCC
DNA 2: TGGTGGCTACGACGGGATT
B19: ACCUAUC (DNA:RNA)
RNA: B4 RNA with U25A, U27C, C29A, C30U, A31C
DNA 1: CAATCTGAATTCCGGTCTCCC
DNA 2: TGGTGGCTACGACGGGATT
B20: UUGCACA (DNA:RNA)
RNA: B4 RNA with C26U, U27G, U28C, C29A
DNA 1: CAATCTGAATTCCGGTCTCCC
DNA 2: TGGTGGCTACGACGGGATT

Numbering of substitutions follows the chain as printed; changes in the protein carry UniProt numbers. The list shows a part of the results.

In the assay the target is T1, RBFOX1 RRM RbFoxmut (Fox-RRM*). In words: EMSA; HiTS-Eq, 1 nM pool, 10 min; buffer printed only for the single-RNA assays: 10 mM Tris pH 7.5, 150 mM NaCl, 3.4 mM EDTA, 0.001% NP-40, 30 C. The following applies: tags: His6 N-terminal (pET28a); label: 5' 32P. The essentials:
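These values rest on relative association constants, computed from read-count changes of each RNA species versus the control reaction and normalised to the cognate motif. Reads came from free RNA recovered by 8% native PAGE after purified RbFox RRM (wild type or mutant) at increasing concentrations was equilibrated for 10 min in 50 µL with 1 nM of a 5′-radiolabelled pool with 7 randomized nucleotides and DNA-annealed flanks.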
On to B1, for which the binding signal is 0.106 KA relative to UGCAUGU.

On to B2, for which the binding signal is 0.0889 KA relative to UGCAUGU. To B3 belongs 0.0429 KA relative to UGCAUGU; to B4, 0.0678 KA relative to UGCAUGU. To B5 belongs 0.111 KA relative to UGCAUGU; to B6, 0.135 KA relative to UGCAUGU; to B7, 0.561 KA relative to UGCAUGU. To B8 belongs 0.112 KA relative to UGCAUGU. Turning to B9, the binding signal is 0.058 KA relative to UGCAUGU.

On to B10, for which the binding signal was 0.0509 KA relative to UGCAUGU. In the case of B11, the binding signal is 0.118 KA relative to UGCAUGU. B12: the binding signal was 0.107 KA relative to UGCAUGU. B13: the binding signal is 0.0439 KA relative to UGCAUGU. As to B14, the binding signal was 0.125 KA relative to UGCAUGU. To B15 belongs 0.08 KA relative to UGCAUGU; to B16, 0.115 KA relative to UGCAUGU. As for B17, the binding signal is 0.0873 KA relative to UGCAUGU. To B18 belongs 0.0837 KA relative to UGCAUGU; to B19, 0.0961 KA relative to UGCAUGU. Consider B20, for which the binding signal is 0.0925 KA relative to UGCAUGU.
